Reference: the RNAGym collection of RNA variant scans (doi:10.7554/elife.90254)
The source gives no read counts; variants with many changes may rest on few reads.

B1: LINE1-mini (parent)
chain: GGCAGAGCUCAACACAGCGUGGCAAAGUGGCUGUGGCUAGACUGCC

Variants of: B1
Assay: self-cleavage, relative activity (ratio to wild type); higher = more cleavage; in vitro, sequencing; the parent is a self-cleaving ribozyme

Variant	self-cleavage
AGAAGAGCUCAACCCAGCGUUGCAAAGUGGCUGAGGCUAGACUGCC	0.19
GGCAGAGCUCAACACGGCUUGGCAAAUUGGCUGUGGCUAGACUGCC	0.05
GGCAGAGAUCAACACAGCGUAGCAAGGUCGCUGUGGCUAGACUGCC	0.08
GGAAGUGCUCAACACAGCGUGGCAAAGAGGUUGUGGCUAGACUGCC	0.08
GGCCGAGCCCAACACAGCGUGGCAAAGUGGCUGUGGCUAGACUACC	0.03
GGAAGAGCUCAACACAGCGUGGCAAAGUGGCAGUGGCUAGGCUGCC	0.1
GACAGAGCUUAGCACAGCGUGGCAAAGUGGGUGUGGCUAGACUGCC	0.13
GGCACAACUUAACACAGCGUGGCAAAGCGGCUGUGGCUAGCCUGCC	0.05
GGCAGAUCUCAACACAGCGUGGGUAAGUGGCGAUGUCUAGACUGGC	0.1
GGCAGCGAUCAACACAGCGCGGCAAAGUGGCUGUGGCGAGACUGCC	0.08
GGCAGAGCUCAACUCAACGUGGCAAAGUCGCUGUGGCUAGACUGCC	0.05
GGCAGAGCUCAACACAGCGUGGCAAAGUGCCUUUGGCUAGUGUGCC	0.04
GGCAGAGUUCAACACAGCGUGGCAAAGUGGCUGAUGCUAGAUUGCC	0.01
GUCAGAGCUGAACACAGCGUGGGCAAGUGGCGGAGGCUAGGCUGCC	0
GGGAGAGCUCAACAGAGCGUGGCAAAGCGGCUGUGGCUAGACUGCC	0.04
GGCAGAGCUCAACACCUCGUCGCAAAGUGGCUGUGGAUAGACUGCC	0.06
GGCAGAGCUCAACACAGCGGGGCAAAGUCGCUGUGGCUAUACUGCC	0.04
GGCAGAGCUCAACACAGCGUGGCAAUGUAGCUGUGGCUAGUCUGCC	0.33
GGCAGAGCGCAACACAGCGUGGCAAAGUGGCUCUGGGUAGACUGCC	0.11

Variant	self-cleavage
GGCAGAGCUCAACACAGCGUGCCAAAGAGGCUGUGGCUAUACUGCC	0.06
GGCAGAGCUCAACCCAGCGUGGGAAAGUGGCUGUGGCUAGACUGCA	0.03
GGCACAGCGCAACACAGCGGGGCCAAGUGGCUGUGGCUAGAGUGCC	0.04
GGCAGAGCUCAACAAAGCGUGGCGAAGUGGCUGUGGAUAGACUGCC	0.04
GGCAGAGCUCCACACAGCGUGUCAAAGUGGCUGUGGCUAGACUUCC	0.03
GGCAGAGCUCAACACAGCGUGGCAUAGUGGCUGUGUCUAGCCUGCC	0.02
GGCAGAGCUAAACACAGCGCGGCAAAGUGGCUGUGGCUAGACUGAC	0.25
GGCAGAGCUCAACACAGCAUGGCAAAGAGGCUGUAGCUAGACUGCC	0.07
UGCAGAGCUCAAUACAGCGUGGCAAAGUGGCUGUGGCUAGGCUGGC	0.06
GCAAGAGCGCAACACUGCGUGGCAAAGUGGAUGUGGCUAGACUGCC	0
GGCAGAGCUCAACACAGCGUUGCAAAGUGGCUGUGGGUACACUGCA	0.03
GGCAGAGCUCAACACAGCGUGGCGAAGUGUCUUUGGCGCGACUGCC	0.12
GGCAGAGCCCAUCAGAGCGUGGCAAAGUGGCUGUGGCCAGACUGCC	0.01
GGGAGAGCUCAACAAAGCGUGGCACAGUGGCUGUGGCUAGAAUGCC	0.07
GGCAGCGCUCAACACAGCCUGGUAAAGUGGCUGUGGCUAGACUGCC	0.4
GGCAUAGCGCCACACAGCGUGGCACAGUGGCUGUGGCUAGACUGCC	0
GGCAGAGCUAAACACAGCGUGGCAAAGUGGCUGUGGCUCGACCGCC	0.02
GCCAGAGCUCAACACAGCGUGGCAAAGUGGCUGCGGCUAGACUGCU	0.01
GGCAGAGCUCAAUACAGCGAGGCAAAGUUGCUGUGGCUAGACAGCC	0.25

Variant	self-cleavage
GGCAGAGGUCCACACAGCGUGGCAAAGUGGCUGUGGCGAGACUGCC	0.03
GGCGGAGCUCAAUACAGCGUGGCAAAGUGGCUGUGGAUAGACUGCC	0.02
GGCAGAGCUCGACACAGAGUGGCGAAGUGGCUGUGGCGAGACUGCC	0.01
GGCAGAGCUUAACACAGCCUGGCAAAGUGGCUGUGGCUAGACAGCC	0.03
GGCAGAGCUCAAUACAACGUGGCAGAGUGGCUGUGGCUAGACUGCA	0.11
GGCUGAGCUCAACACAGCGUGGCUAAGUGGCUGUAGCUAGACUGCC	0.08
GCCGGAGCUCAACACAGCGUGGCAAAGUGACUGUGGCUAGAGUGCC	1.22
GGCAGAGCUCAACACAGCCAGGCAAAGUGGCUGUGGCUAGACUGAC	2.01
GGCAGAGCGCAACACAGCUGGGCAAAGUGGCUGUGGCUAGACUGUC	0.09
GACAGAGCUCAAGACAGCGUGGCAAAGUGGAUGUGGCUAGACUGCC	0.26
GGAACACCUCAACACAGCGUGGCAAAGUGCCUGUGGCUAGACUGCC	0.2
GGCAGUGCUCAACAUAGCGUGGCAAAGUGGCUGUGGCUAGAAUGCC	0.17
GGUAGAGCUCAACACUGCGUGGCAAAGUGGCUGUGGCUAGACUGCA	0.07
GGCAGAGGUCCACACAGCGUGGCAACGUGGCUGUGGCUAGACUGCC	0.03
GGCAGAGCUCAAUACAGCGUGGCAAAGUAGCUGUGGCUAAUCUACC	0.13
GGCAGAGCACAACACAGCGUGGAAAAGUGGUUGUGGCUAGACUGCC	0.04
GGCAGAGCUCAACACAGCAUGGCAAAGUGGCUGUGGCUAGAGCGCC	0.03
GGCAGAGAUCAACUCAGCGCGGCAAAGUGGCUGUGGCUAGACUGCC	0.19
